# Data published in PubChem BioAssay AID1347073 (National Center for Advancing Translational Sciences (NCATS), 2019).
# About 200 (0.44%) of roughly 45,000 compounds were called active. Roughly 7% stayed inconclusive and do not appear here. Calls follow the shape of the dose curve; as a rule, active = well fitted activation curve with a large enough effect; inconclusive = small, poorly fitted or top-dose-only effect; inactive = no such curve, though single readings can be large or run the other way. The list shows a part of the results.
# Test: qHTS of TDP-43 Inhibitors: NCGC Sytravon Library Screen; also: 0% is about no effect; nearly all actives have a fitted effect of over 55% in size
# Conditions: yeast TDP-43 toxicity rescue, BacTiter-Glo growth, 24 h; series mostly up to 46.1 µM; growth rescue (activation): at the top concentration
# Method in brief: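 TDP-43-expressing yeast, pregrown in raffinose, seeded at OD600 0.02 in galactose medium with compound for 24 hr at 30 deg C. Growth read by BacTiter-Glo luminescence, so rescue of toxicity appears as activation.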
row,Compound,growth rescue (activation)
1,O=C(NNC(=S)Nc1ccc(Cl)cc1Cl)C1CC1,inactive: 15.3%
2,Cc1ccc(OCC(=O)N/N=C2/SCC(=O)N2Cc2ccco2)cc1,inactive: 2.64%
3,CC(=O)NCCC(=O)Nc1nc2ccc(Oc3ccccc3)cc2s1,inactive: -4.1%
4,Clc1ccc(C2Nc3cccc4cccc(c34)N2)c(Cl)c1,inactive: 25.7%
5,COc1ccc(CCN2C(=O)N(c3ccc(OC)cc3)C(=O)C2CC(=O)Nc2ccc(OC)cc2)cc1 (configuration not stated),inactive: 28.1%
6,Cc1ccc(S(=O)(=O)NCC(=O)Nc2ccc3c(c2)OCO3)cc1,inactive: 5.13%
7,N#Cc1ccc(CN2CCN(C(=O)CC(NC(=O)c3ccccc3)c3ccccc3)CC2)cc1 (configuration not stated),inactive: 1.49%
8,CCn1c(CC(=O)Nc2ccc(F)cc2)nnc1SCC(=O)N1CCOCC1,inactive: 9.82%
9,Cc1ccc(/C=C2\SC(=S)N(CCCC(=O)Nc3nccs3)C2=O)cc1,inactive: 6.99%
10,CCCC(c1nnnn1CC1CCCO1)N1CCN(c2ccccc2)CC1 (configuration not stated),inactive: 11.8%
11,CN1CCN(NC(=S)Nc2ccc(Oc3ccccc3)cc2)CC1,inactive: -3.43%
12,CCOC(=O)c1sc(/N=C/c2ccc(O)cc2O)cc1C,inactive: 0.449%
13,Cc1ccc(NC(=O)c2ccc(CN3CCc4ccccc4C3)cc2)cc1,inactive: 20.5%
14,O=C(NCc1cccnc1)c1cc(Cl)ccc1[N+](=O)[O-],inactive: 13.9%
15,COc1ccc(CCNC(=O)C/C(C)=N/NC(=O)C2CCCCC2)cc1OC,inactive: 1.1%
16,CN1CCC(=NNC(=O)CN(c2ccc([N+](=O)[O-])cc2)S(=O)(=O)c2ccccc2)CC1,inactive: 10.3%
17,CC(=O)Nc1sc(C)c(C)c1C(=O)OCC(=O)N(CC(C)C)C1CCS(=O)(=O)C1 (configuration not stated),inactive: -5.84%
18,CCOC(=O)CC1C(=O)NCCN1S(=O)(=O)c1ccc(C)cc1 (configuration not stated),inactive: 0.0686%
19,CC/C(C)=N/NS(=O)(=O)c1ccc(C)c([N+](=O)[O-])c1,inactive: -0.617%
20,CCOC(=O)c1ccc(NNC(C)=O)c([N+](=O)[O-])c1,inactive: 15.1%
21,Cc1ccc(-n2ncc(C(=O)Nc3ccc(Cl)cc3)c2C2CCNCC2)cc1C,inactive: 4.04%
22,Cc1onc(-c2ccccc2)c1C(=O)OCC(=O)Nc1cc(S(=O)(=O)N2CCOCC2)ccc1Cl,inactive: 4.67%

row,Compound,growth rescue (activation)
1,CC(=O)Nc1ccc2c(c1)CN(c1cc(C)ccc1C)CO2,inactive: -1.88%
2,Cc1ccc(S(=O)(=O)NCC(c2ccccc2)N2CCCCC2)cc1 (configuration not stated),inactive: 25.2%
3,COc1ccc(/C=N/NC(=O)c2ccc(CN3C(=O)c4cccc5cccc3c45)cc2)cc1O,inactive: 17.1%
4,O=C(NCc1ccc(Cl)cc1)C1CCN(S(=O)(=O)c2ccc(F)cc2)CC1,inactive: 3.19%
5,CCN1CCN(c2ncnc3scc(-c4ccc(C)c(C)c4)c23)CC1,inactive: 1.16%
6,C=CCn1c(N)cc(=O)nc1SCC(=O)Nc1ccc(C(=O)OCC)cc1,inactive: 6.68%
7,Cc1ccc(C(=O)N/C(=C\c2cccnc2)C(=O)N2CCCC2)cc1,inactive: -40.6%
8,CCN(CC1CCCO1)C(=O)c1cc(COc2ccc(F)cc2F)on1 (configuration not stated),inactive: 20.9%
9,COc1cccc(/C=N\NC(C)=O)c1OC/C=C/c1ccccc1,inactive: -0.591%
10,CCCn1c(N)c(C(=O)CSc2nnc(C3CC3)n2C2CC2)c(=O)[nH]c1=O,inactive: 10.1%
11,COc1ccccc1C(=O)OCC(=O)NC(=O)NCc1ccccc1,inactive: 5.86%
12,Cc1nc2cc(C(=O)NCc3cccnc3)ccc2n1-c1ccc(F)cc1F,inactive: 8.94%
13,CCCCOc1ccc(C(=O)Nc2sc3c(c2C(=O)OCC)CCCCC3)cc1,inactive: 1%
14,Cc1nc(C)n(C(C)CNS(=O)(=O)c2ccc(Cl)cc2)n1 (configuration not stated),inactive: 7.97%
15,Cc1ccc(NC(=O)CC2(CC(=O)O)CCCC2)c(C)c1,inactive: -3.25%
16,O=C(NCc1ccco1)/C(=C/c1ccc(Cl)cc1)NC(=O)c1ccco1,inactive: -1.31%
17,CCOc1ccccc1CNCc1ccc(C(=O)O)cc1,inactive: 2.77%
18,C/C(=N\NS(=O)(=O)c1ccccc1)c1ccc2c(c1)OCO2,inactive: 13.5%
19,COc1ccc(C(=O)N2CCN(CCNC(=O)C(=O)Nc3ccc(Br)cc3)CC2)cc1,inactive: 27.7%
20,CC(C)NCC(O)COC1C2CC3CC(C2)CC1C3 (configuration not stated),inactive: 3.48%
21,COC(=O)c1ccccc1NS(=O)(=O)c1ccc(Cl)nc1,inactive: 1.64%
22,Cc1cc(C(=O)CCC(=O)N2CCN(S(=O)(=O)c3cccs3)CC2)c(C)s1,inactive: 26.5%

row,Compound,growth rescue (activation)
1,O=C(OCC(=O)N(C1CCCCC1)C1CCCCC1)c1ccc(O)cc1,inactive: 9.99%
2,CCOC(CNC(=O)c1nnc(Cc2cc(OC)c(OC)c(OC)c2)o1)OCC,inactive: 12.6%
3,COc1cccc(CN2CCC(C(=O)N3CCN(c4ccccc4F)CC3)CC2)c1OC,inactive: -16.1%
4,COc1ccc(C2Nc3ccccc3C(=O)N2NS(=O)(=O)c2ccccc2)cc1OC (configuration not stated),inactive: -0.889%
5,CC1CCN(CC(=O)Nc2ccccc2C(=O)c2ccccc2)CC1,inactive: -0.865%
6,CCOc1ccc(CN2CCN(Cc3cccn3-c3nccs3)CC2CCO)cc1 (configuration not stated),inactive: -5.79%
7,NC(=O)COC(=O)c1ccccc1OCc1ccccc1,inactive: 4.68%
8,COc1ccc(CCNC(=O)C(C)OC(=O)c2cccs2)cc1OC (configuration not stated),inactive: -4.28%
9,Cc1ccc(-c2nnnn2C2C/C(=N\NC(N)=S)C3OCC2O3)cc1 (configuration not stated),inactive: 10.2%
10,O=C(O)C1CCCCC1C(=O)NCCCN1CCCC1=O (configuration not stated),inactive: -7.39%
11,O=C(Nc1nnc(-c2cccc(F)c2)s1)Nc1ccccc1F,inactive: 3.25%
12,Cc1cccc(OCC(=O)Nc2ccc(C(=O)O)cc2NC(=O)COc2cccc(C)c2)c1,inactive: -12.6%
13,COCCN(C(=S)Nc1c(C)cc(C)cc1C)C(C)c1cccnc1 (configuration not stated),inactive: 12.1%
14,CC1=C(C(=O)N2CCN(c3cc(C)ccc3C)CC2)C2(CCC(C)CC2)OC1=O (configuration not stated),inactive: 3.98%
15,O=C1CC(C(=O)Nc2ccc(F)cc2)S/C(=N\N=C\c2ccco2)N1 (configuration not stated),inactive: 15.7%
16,O=C(NCc1ccccc1)Nc1nnc([C@@H]2C[C@H](O)[C@@H](CO)O2)s1,inactive: -13.6%
17,COc1ccc(-c2noc(CNC(=O)c3ccc4c(c3)OCO4)n2)cc1OC,inactive: -14.9%
18,CC(OC(=O)c1ccccc1)C(=O)NCCC1=CCCCC1 (configuration not stated),inactive: 28.4%
19,CCOP(=O)(OCC)c1nc(-c2ccc(Cl)cc2)oc1NCc1ccccc1,inactive: 0.605%
20,COc1cc(/C=N/NC(=O)COc2ccc(-n3cnnn3)cc2)ccc1OCC(N)=O,inactive: -3.13%
21,CCOC(=O)N1CCN(C(=O)CCC(=O)c2ccc(OCC)cc2)CC1,inactive: 15.8%
22,Cc1cccc(NC(=O)c2cc(NC(=O)C3CCCCC3C(=O)O)ccc2N2CCOCC2)c1 (configuration not stated),inactive: 6.11%

row,Compound,growth rescue (activation)
1,CCc1ccc(C(=O)CN2C(=O)C(C)N(c3ccc(C)cc3)C2=O)cc1 (configuration not stated),inactive: 11%
2,CCC(=O)c1ccc(OCc2ccc(C(=O)OC)cc2)cc1,inactive: 16%
3,Cc1ccc(S(=O)(=O)NC(=O)C2(C)CCN2C(=O)C2CC2)cc1 (configuration not stated),inactive: 6.73%
4,COc1ccc(S(=O)(=O)Nc2cc(C)on2)cc1,inactive: 32.1%
5,CCc1nc2c(OCCOc3ccc(F)cc3)cccn2c1N(C)C(=O)C(C)C,inactive: 12.7%
6,O=C(NC(N1CCOCC1)C(Cl)(Cl)Cl)c1ccccc1Cl (configuration not stated),inactive: -3.6%
7,Cc1ccc(C(=O)COC(=O)CNC(=O)CN2C(=O)c3ccccc3C2=O)cc1,inactive: 10.7%
8,COc1cc(/C=N/NC(=O)c2cc(C)oc2C)ccc1O,inactive: 29.7%
9,O=C(c1cccs1)c1cn(CCOc2ccccc2F)c2ccccc12,inactive: 17.8%
10,COc1ccc(N2C(=O)C3CCCN3C2=S)cc1 (configuration not stated),inactive: -16.2%
11,O=C(C1CCN(S(=O)(=O)c2ccccc2)CC1)N1CCN(Cc2ccc3c(c2)OCO3)CC1,inactive: 13%
12,CC(=C/c1ccccc1)/C=N/N1CCN(Cc2ccc(C)cc2)CC1,inactive: 9.44%
13,Cc1ccsc1C(=O)C1CCCN(Cc2cn(C)nc2-c2ccccc2)C1 (configuration not stated),inactive: 0.601%
14,O=C(NCc1ccc(Cl)cc1)c1ccc(CSc2nc3ccncc3[nH]2)cc1,inactive: 13.1%
15,CC1CCCCN1S(=O)(=O)c1ccc(N(C(=O)c2cnccn2)C(C(=O)NC2CCCCC2)c2cccs2)cc1 (configuration not stated),inactive: 14.2%
16,COc1ccc(O)c(/C=N/N2CCCCC2)c1,inactive: -9.45%
17,COc1ccccc1NC(=O)Cn1c(CCC(=O)O)ccc1-c1ccc(C)cc1,inactive: 14.3%
18,Cc1c(NC(=O)c2ccc(Cl)c(S(=O)(=O)N3CCCCC3)c2)c(=O)n(-c2ccccc2)n1C,inactive: 0.675%
19,Cc1cc(S(=O)(=O)NC2CCCCC2)ccc1OCC(=O)NCC1CCCO1 (configuration not stated),inactive: -3.13%
20,Cn1ncc(Cl)c1C(=O)NCc1ccco1,inactive: 9.37%
21,O=C(CCCc1nc2ccccc2s1)Nc1ccccc1,inactive: 29.5%
22,CCOCCc1nnc(NC(=O)CS(=O)(=O)c2ccc(C)cc2)s1,inactive: 0.521%

row,Compound,growth rescue (activation)
1,O=C(CCN=C1NS(=O)(=O)c2ccccc21)NCc1ccccc1F,inactive: 10.2%
2,COC(=O)c1cc2oc3ccccc3c2n1Cc1ccc(C)cc1,inactive: 15.8%
3,COc1ccnc(N=CNOCc2ccc(Cl)cc2)c1C#N,inactive: 26.1%
4,COc1ccc(OC)c(CNCc2ccc3c(c2)OCO3)c1,inactive: -2.71%
5,O=C(Nc1nnc(-c2ccccc2)s1)c1ccccc1O,inactive: -0.541%
6,O=S1(=O)c2ccccc2Nc2ccccc21,inactive: 6.33%
7,Cc1ccc(CSc2nnc(SCC(=O)N/N=C/c3c(C)nn(-c4ccccc4)c3C)s2)cc1,inactive: -12.5%
8,Cc1cc(N2CCOCC2)nc2ccc(NC(=O)CCC(=O)N3CCN(c4ccccc4)CC3)cc12,inactive: 10.5%
9,CC[n+]1c(/C=C/C=C/N(C(C)=O)c2ccccc2)sc2ccccc21,inactive: -3.78%
10,CC(=O)Nc1cccc(NC(=O)c2ccc(Br)cc2)c1,inactive: 3.31%
11,COc1ccc(OC)c(S(=O)(=O)Nc2ccc3c(c2)n(C)c(=O)n3C)c1,inactive: 1.78%
12,CCOC(=O)c1c(C)oc2ccc(N(C(=O)c3ccncc3)S(=O)(=O)c3ccc(CC)cc3)cc12,inactive: 6.83%
13,CC(C)CCN1CCN(Cc2ccc(Oc3ncccn3)cc2)CC1CCO (configuration not stated),inactive: 4.88%
14,CC1(c2ccccc2)NC(=O)N(CC(=O)Nc2cc(S(=O)(=O)N3CCOCC3)ccc2Cl)C1=O (configuration not stated),inactive: 14.3%
15,CC(C)C1Nc2ccc(S(=O)(=O)N3CCOCC3)cc2NC1=O (configuration not stated),inactive: 6.18%
16,O=C(NCc1ccncc1)C1CCN(C(=O)c2cccc(Cl)c2)CC1,inactive: 3.04%
17,COc1cc(OC)c(C(=O)OCN2C(=O)c3ccccc3C2=O)cc1OC,inactive: 35.5%
18,CN(C)[C@@H]1CCC[C@@H]1OC(=O)C(c1ccccc1)c1ccccc1,inactive: -1.7%
19,Cc1ccc(S(=O)(=O)Nc2cccc(C(=O)N3CCOCC3)c2)cc1,inactive: 4.91%
